Measured values from publication PMC7923551 (Proceedings of the National Academy of Sciences of the …, 2021).
pIC50: −log10 of the molar value. Where “and” joins values, the source holds several entries; their conditions need not be identical. Equal values may be shown once.

Columns and labels:
[1] = target: T1, SARS-CoV-2 M^pro (Severe acute respiratory syndrome coronavirus 2, UniProt P0DTD1); assay: thermal shift binding assay; conditions: 3 µM M^pro protein, 40 µM testing compound (Fig. 1C)
[2] = target: T1, SARS-CoV-2 M^pro; design: method as in PMID 33330841; conditions: with and without reducing reagent 1,4-dithiothreitol (DTT); cited from earlier work
[3] = target: T1, SARS-CoV-2 M^pro; assay: FRET-based enzymatic assay; format: biochemical; conditions: 100 nM M^pro
[4] = target: T1, SARS-CoV-2 M^pro; conditions: 4 µM M^pro protein, 10 to 30 µM testing compound (Fig. 1D-H)
[5] = IC50, in the absence of DTT, 10 µM FRET substrate (Fig. 1B)
[6] = IC50, in the presence of 4 mM DTT, 10 µM FRET substrate (Fig. 1A)

Structure (SMILES) | binding to M^pro in thermal shift assay [1] | inhibition of SARS-CoV-2 M^pro and dependence on DTT [2] | pIC50 [3, 5] | pIC50 [3, 6] | binding to M^pro in native MS assay [4]
CCN(CCO)CCCC(C)Nc1ccnc2cc(Cl)ccc12 (stereo not drawn) [hydroxychloroquine] | did not show binding | – | – | – | –
CCN(CC)C(=S)SSC(=S)N(CC)CC [disulfiram] | – | inhibition was only observed in the absence of reducing reagent | – | – | –
COC(=O)N[C@H](C(=O)N[C@@H](Cc1ccccc1)[C@@H](O)CN(Cc1ccc(-c2ccccn2)cc1)NC(=O)[C@@H](NC(=O)OC)C(C)(C)C)C(C)(C)C [atazanavir] | nor did they bind | – | < 4.22 | < 4.22 | –
CCOc1nc2cccc(C(=O)OC(C)OC(=O)OC3CCCCC3)c2n1Cc1ccc(-c2ccccc2-c2nnn[nH]2)cc1 (stereo not drawn) [candesartan cilexetil] | nor did they bind | – | < 4.22 | < 4.30 and 4.27 | did not show binding
CN(C)[C@@H]1C(O)=C(C(N)=O)C(=O)[C@@]2(O)C(O)=C3C(=O)c4c(O)cccc4[C@@](C)(O)[C@H]3[C@H](O)[C@@H]12 [oxytetracycline] | nor did they bind | – | < 4.22 | < 4.22 | –
CCOc1nc2cccc(C(=O)O)c2n1Cc1ccc(-c2ccccc2-c2nnn[nH]2)cc1 [candesartan] | nor did they bind | – | < 4.22 | < 4.22 | –
